Measured values taken from article PMC4336329 (PLoS ONE, 2015).
Hit rate of the full screen: of about 310,000 compounds, about 2,200 (0.71%) showed an effect of 50% or more. The effect is printed as a negative number. Some of the results follow. Where a SMILES comes first, the peptide text is derived from it. The star is where a group is joined. Cbz = O=C(OCc1ccccc1)*

These compounds were tested against human ether-à-go-go-related gene (hERG) potassium channel (human, UniProt Q12809) (assay: primary screen, population patch clamp on CHO cells stably expressing hERG).
Sequence of human ether-à-go-go-related gene (hERG) potassium channel (Q12809 whole entry, looked up): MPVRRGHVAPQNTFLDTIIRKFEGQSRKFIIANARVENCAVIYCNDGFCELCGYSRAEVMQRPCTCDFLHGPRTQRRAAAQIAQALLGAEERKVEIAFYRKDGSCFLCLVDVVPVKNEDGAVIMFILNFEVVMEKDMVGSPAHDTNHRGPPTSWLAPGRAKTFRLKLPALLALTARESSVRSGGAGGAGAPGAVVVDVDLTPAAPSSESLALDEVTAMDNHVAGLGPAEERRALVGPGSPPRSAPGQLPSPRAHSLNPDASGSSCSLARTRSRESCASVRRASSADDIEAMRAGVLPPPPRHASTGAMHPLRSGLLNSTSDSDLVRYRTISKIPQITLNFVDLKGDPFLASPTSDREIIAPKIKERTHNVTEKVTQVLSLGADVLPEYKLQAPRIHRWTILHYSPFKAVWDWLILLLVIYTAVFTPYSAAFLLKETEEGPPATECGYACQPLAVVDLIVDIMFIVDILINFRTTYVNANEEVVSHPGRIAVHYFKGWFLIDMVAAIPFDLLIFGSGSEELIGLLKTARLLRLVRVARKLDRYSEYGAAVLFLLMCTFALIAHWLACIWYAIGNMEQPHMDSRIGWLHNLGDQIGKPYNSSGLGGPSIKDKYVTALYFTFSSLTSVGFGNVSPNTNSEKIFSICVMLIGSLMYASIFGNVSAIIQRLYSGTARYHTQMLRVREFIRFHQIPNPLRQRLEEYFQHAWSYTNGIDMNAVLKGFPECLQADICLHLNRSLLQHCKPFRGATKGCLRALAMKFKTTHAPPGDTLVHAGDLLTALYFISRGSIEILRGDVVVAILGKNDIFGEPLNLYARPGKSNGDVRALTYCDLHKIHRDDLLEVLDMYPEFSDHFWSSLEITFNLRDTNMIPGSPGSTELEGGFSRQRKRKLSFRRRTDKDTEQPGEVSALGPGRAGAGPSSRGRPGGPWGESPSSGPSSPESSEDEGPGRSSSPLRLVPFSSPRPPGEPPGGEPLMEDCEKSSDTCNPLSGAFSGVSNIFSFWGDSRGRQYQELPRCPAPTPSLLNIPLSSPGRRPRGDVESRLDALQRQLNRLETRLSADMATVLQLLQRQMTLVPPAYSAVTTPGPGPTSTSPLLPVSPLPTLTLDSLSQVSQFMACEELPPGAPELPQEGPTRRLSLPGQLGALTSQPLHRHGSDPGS

Compound | hERG current change (%, negative = inhibition) at 1uM [%]
O=C(NCCc1ccccc1)C1CCC(=O)N(CCCN2CCCC2=O)C1 (centres unmarked) | 10.1
CN1C(=O)C2(OCCCO2)c2ccccc21 | 15
CCc1nn(C(C)C(=O)N(C)Cc2ccccc2)c(=O)c2cc3occc3n12 (centres unmarked) | 10.9
CCn1c(=O)n(CC)c2cc(S(=O)(=O)Nc3c(C)cccc3C)ccc21 | 3.07
COc1cccc(-c2ncc3ccccn23)c1.O=C(O)C(=O)O | 4.02
O=C1CC(=O)N(c2ccccc2)N1c1ccccc1 | 3.73
Cc1cc(C)c2sc(N(CCCN(C)C)C(=O)c3ccc(S(=O)(=O)N(C)C4CCCCC4)cc3)nc2c1.Cl | -32.9
COc1ccc2nc(Nc3nc(C)c(CCC(C)C)c(=O)[nH]3)nc(C)c2c1 | -1.85
Cc1c(C(c2ccccc2)c2c(C)n(C)n(-c3ccccc3)c2=O)c(=O)n(-c2ccccc2)n1C | 16.7
COc1ccc(CCN(C(=O)C(F)(F)F)C(C(=O)NC2CCCCC2)c2ccc(C)s2)cc1 (centres unmarked) | 9.22
CN(C)c1cccc2c1C(=O)c1ccccc1C2=O | -0.24
O=C(O)c1cccc(NC(=O)c2ccc3c(c2)C(=O)N(C2CCCCC2)C3=O)c1 | 5.48
Cc1cccc(NS(=O)(=O)c2ccc(C(C)(C)C)cc2)n1 | 9.31
Cc1ccc(Cl)c(NC(=O)CN2CCN(C=O)CC2)c1 | 7.72
COc1cc([C@@H]2CC=C(C(=O)O)[C@H](c3ccc(F)cc3)N2S(=O)(=O)c2ccc(C)cc2)cc(OC)c1OC | 7.14
Fc1cccc(F)c1/C=N/NC(=S)Nc1cccnc1 | -1.15
CCOC(=O)c1ccc2c(c1)[n+](CC)c(C)n2-c1ccccc1.[I-] | 6.88
CCOc1ccccc1N1CCN(C(=O)CN2C(=O)NC3(CCCC3)C2=O)CC1 | 5.03
Cc1c(Cl)cnc(NC(=O)CSc2nncs2)c1Cl | 7.35
CCOC(=O)CC1(CC(=O)OCC)NC(=O)c2c(C)sc(C(=O)OCC)c2N1 | 13.7
O=[N+]([O-])c1ccc(-c2cnc3ccccc3n2)cc1 | 14.8
CCOC(=O)c1c(S(=O)(=O)NCC(=O)Nc2cc(C)ccc2OC)c(C)n(C)c1C | 13.9

Compound | hERG current change (%, negative = inhibition) at 1uM [%]
COc1cccc(C2CCN(CC(=O)Nc3cc(Cl)ccc3OC)CC2O)c1 (centres unmarked) | 10.7
CC(C)c1ccc(N(CC(=O)N2CCN(Cc3ccccc3)CC2)S(C)(=O)=O)cc1 | 7.12
Cc1ccc(F)cc1NC(=O)COC(=O)C1CCN(c2ccc(C(F)(F)F)cn2)CC1 | 21.6
CS(=O)(=O)N1CCC(C(=O)c2cccc(Cl)c2)CC1 | 6.61
Cc1cccc(Cn2c(Sc3nc(C)cs3)nc3c2c(=O)[nH]c(=O)n3C)c1 | 9.26
Cc1c(C(=O)N2CCOCC2)sc(NC(=O)Cc2ccccc2)c1C#N | -2.64
CC1CCc2nc(NC(=O)CN3CCOCC3)sc2C1 (centres unmarked) | -0.437
Cc1ccc(C)c(NS(=O)(=O)c2ccc(-c3cnc(C4CC4)o3)cc2)c1 | 13.2
COc1ccc(NC(=S)N/N=C/c2cccn2Cc2ccc(F)cc2)cc1 | 12
CC(=O)Nc1ccc(S(=O)(=O)N2CCSC2c2ccccc2Cl)cc1 (centres unmarked) | 6.81
Cc1ccc(S(=O)(=O)/N=C2/NC(=O)/C(=C/c3ccc(Br)o3)S2)cc1 | 22.4
Nc1cc(=O)[nH]c(SCC(=O)Nc2cccc([N+](=O)[O-])c2)n1 | 8.82
CC(=O)Nc1cccc(C(=O)OCc2ccc([N+](=O)[O-])cc2)c1 | -13.5
CC1CC(C)CN(C(=O)Cn2nnc(-c3ccccc3)n2)C1 (centres unmarked) | 5.09
CCOc1ccc(C(=O)Nc2ccc(S(=O)(=O)Nc3cc(C)on3)cc2)cc1 | 10.2
Cc1nc(N)sc1-c1nnc(SCC(=O)Nc2nccs2)n1C | -5.29
C[C@H](NC(=O)OCc1ccccc1)C(=O)N[C@@H](Cc1c[nH]c2ccccc12)C(=O)O (Cbz-Ala-Trp-OH) | 14.3
COCCN1CCC(CNCc2cn[nH]c2-c2ccc(C)c(C)c2)C1 (centres unmarked) | 13.5
Cc1ccccc1C(=O)Nc1ccc(-c2nnc(SC(C)C(=O)O)n2C)cc1 (centres unmarked) | 16.5
Cc1ccc(-c2nn(-c3ccccc3)cc2/C=N/O)cc1 | 20.2
O=C(NNc1cccc(Cl)n1)Nc1ccc(F)cc1 | 14
CCOC(=O)N1CCN(C(=O)c2cccn3c(=O)c4sccc4nc23)CC1 | -9.35

Compound | hERG current change (%, negative = inhibition) at 1uM [%]
COCC(=O)NC1CCN(S(=O)(=O)c2cccc(C(C)=O)c2)CC1 | 13.9
Oc1[nH]c2ccc(Br)cc2c1N=Nc1ccc(F)cc1 | 17.2
Cc1ncoc1C(=O)N1CCCC(C(=O)c2ccc(C(F)(F)F)cc2)C1 (centres unmarked) | 1.65
COc1ccc(NC(=O)CN(C)C(=O)CC2CCCCC2)cc1 | 3.61
Cc1ccc(C(C(=O)NCC2CCCO2)N(Cc2ccccc2F)C(=O)Cn2nnc(-c3cccs3)n2)cc1 (centres unmarked) | 13.9
O=C(Nc1nccs1)[C@@H]1CC=C[C@@H]2CCN(Cc3ccccc3)C(=O)[C@@H]21 | 17.9
CC(C)CC(=O)N1CCN(c2ccc([N+](=O)[O-])c(NCc3ccccc3)c2)CC1 | 3.51
CCOc1ccc(/C=N/NC(=O)c2ccc(Cn3cc(Br)cn3)o2)cc1 | 3.2
COc1ccc(CC(=O)Nc2ccc(S(=O)(=O)Nc3cc(C)on3)cc2)cc1 | -5.27
COc1ccc(CC2(CO)CCN(S(=O)(=O)c3c(C)nn(C)c3C)CC2)cc1 | 18.6
CC1=NN(C(=O)c2ccoc2C)C(O)(C(F)(F)F)C1 (centres unmarked) | 11.3
O=C1c2cc(F)ccc2OC2(CCNCC2)C12CC(c1ccccc1)=NO2 (centres unmarked) | 18.4
CCOC(=O)C1CCN(c2ccccc2CN2CCN(c3ccccc3OCC)CC2)CC1 | -1.93
CC(=O)Oc1ccccc1-c1nc(/C=C/c2ccccc2)no1 | 16.8
CC(=NCCc1c[nH]c2ccccc12)c1c(O)n(Cc2ccccc2)c(=O)[nH]c1=O | 10.6
COc1cc(C2=CCN(C(C)=O)CC2)ccc1OC(C)=O | 12.3
COc1cc(S(=O)(=O)Nc2ccncc2)ccc1F | 24
CCCC(=O)Nc1ccc(NC(=O)Cc2ccccc2)cn1 | 3.08
Cc1cc(C(=O)N/N=C2/CC(C)CC(C)(C)C2)c(C)o1 (centres unmarked) | 9.97
Cc1ccc(C(=O)N2CCN(c3ccc(F)cc3)CC2)cc1S(=O)(=O)N1CCCCC1 | -11.6
COc1ccc(/C(O)=C2/C(=O)C(=O)N(c3ncccn3)C2c2ccc(OC)c(OC)c2)cc1 (centres unmarked) | 1.28
COc1cccc(CC(=O)OCc2csc(CC(=O)Nc3ccccc3C)n2)c1 | 9.5

Compound | hERG current change (%, negative = inhibition) at 1uM [%]
COc1ccccc1CNC(=O)Cn1nnnc1CN(C)C(C)C | 12.5
Cc1cc(C)c(C)c(OCC(=O)N2CCOCC2)c1 | 12.3
CNC(=O)COC(=O)c1nc(-n2nc(C)cc2C)ccc1Cl | 4.32
COc1ccc(NC(=O)CC(c2ccc(F)cc2)c2ccc(OC(C)C)cc2)cc1 (centres unmarked) | 4.65
COc1ccc(NC2CCCN(C(=O)Cn3ccc(C)n3)C2)cc1OC (centres unmarked) | 27
Cc1nc2cc(C(=O)O)ccc2n1-c1ccccc1 | 15.3
COc1cc(/C=N/NC(=O)C(C)n2nnc3ccccc32)ccc1O (centres unmarked) | 9.89
CCOC(=O)c1ccc(NC(=S)N2CCC(C(N)=O)CC2)cc1 | -2.23
O=[N+]([O-])c1ccc(N2CCN(c3ccccc3Cl)CC2)cn1 | -10
CC1(C)Nc2ccccc2C(=O)N1NC(=O)c1ccccc1 | 4.68
Cc1cc(NS(=O)(=O)c2ccc(NC(=O)/C=C/c3c(F)cccc3Cl)cc2)no1 | 12.3
O=C1C=C(N2CCOCC2)CCC1 | 12.9
O=[N+]([O-])c1cccc(/C([O-])=C(/C(=S)Nc2ccccc2F)[n+]2ccccc2)c1 | 4.59
CNc1nc(SC(C)C(=O)Nc2ccc(Cl)c(Cl)c2)nc(N2CCOCC2)n1 (centres unmarked) | 11.8
O=C(CCCN1C(=O)/C(=C/c2ccccc2)SC1=S)Nc1ccccc1O | 4.51
CCCCn1c(SCC(=O)c2ccc(O)c(O)c2)nc2ccsc2c1=O | 11.3
COc1ccc(Cl)cc1NC(=O)NCc1ccc2c(c1)OCO2 | -4.8
CN(C)C=O.Cc1cccc(-n2nnnc2SCC(=O)N(CC(C)C)c2c(N)n(CC(C)C)c(=O)[nH]c2=O)c1 | 4.9
CCNC(=O)c1c(C)[nH]c(C(=O)OCC)c1C | 8.48
CC(C)N(C(=O)CSc1ncnc2sc(-c3ccccc3)cc12)C(C)C | 12.2
